The results in this text go back to PubChem BioAssay AID596 (National Center for Advancing Translational Sciences (NCATS), 2007).

Among all 71,000 compounds or so, about 1,400 (2%) were called active. Inconclusive results (about 3%) are left out. The call rests on the fitted dose curve; in most records, active means well fitted curve in the direction sought with a large enough effect; inconclusive means small, poorly fitted or top-dose-only effect; inactive means no such curve, though single readings can be large or run the other way. Some compounds were tested as several samples or in several runs, with calls that do not always agree. Not every entry of the source has a single result; some have several. This is not the full list of results. The source may hold further records. The records of an entry are repeated measurements in other runs, samples, wells, individuals or studies. Additions like (4×) say how often a value occurs here.
On the % scale 0 is the no-effect control and ±100 the full control effect; potency means the concentration at half of the fitted maximal effect.

The assay deals with Microtubule-associated protein tau (Homo sapiens) (UniProt P10636). Kind of assay: qHTS Assay for Tau Filament Binding.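 Further: actives lower thioflavin S fluorescence by blocking filaments or displacing dye.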 To be noted: recombinant tau filaments, thioflavin S fluorescence, 15 h, filaments grown with octadecylsulfate alongside compound; series mostly up to 57.1 µM. The source says: NIH Molecular Libraries Screening Centers Network [MLSCN]
Chain of UniProt P10636 (P10636 whole entry, looked up): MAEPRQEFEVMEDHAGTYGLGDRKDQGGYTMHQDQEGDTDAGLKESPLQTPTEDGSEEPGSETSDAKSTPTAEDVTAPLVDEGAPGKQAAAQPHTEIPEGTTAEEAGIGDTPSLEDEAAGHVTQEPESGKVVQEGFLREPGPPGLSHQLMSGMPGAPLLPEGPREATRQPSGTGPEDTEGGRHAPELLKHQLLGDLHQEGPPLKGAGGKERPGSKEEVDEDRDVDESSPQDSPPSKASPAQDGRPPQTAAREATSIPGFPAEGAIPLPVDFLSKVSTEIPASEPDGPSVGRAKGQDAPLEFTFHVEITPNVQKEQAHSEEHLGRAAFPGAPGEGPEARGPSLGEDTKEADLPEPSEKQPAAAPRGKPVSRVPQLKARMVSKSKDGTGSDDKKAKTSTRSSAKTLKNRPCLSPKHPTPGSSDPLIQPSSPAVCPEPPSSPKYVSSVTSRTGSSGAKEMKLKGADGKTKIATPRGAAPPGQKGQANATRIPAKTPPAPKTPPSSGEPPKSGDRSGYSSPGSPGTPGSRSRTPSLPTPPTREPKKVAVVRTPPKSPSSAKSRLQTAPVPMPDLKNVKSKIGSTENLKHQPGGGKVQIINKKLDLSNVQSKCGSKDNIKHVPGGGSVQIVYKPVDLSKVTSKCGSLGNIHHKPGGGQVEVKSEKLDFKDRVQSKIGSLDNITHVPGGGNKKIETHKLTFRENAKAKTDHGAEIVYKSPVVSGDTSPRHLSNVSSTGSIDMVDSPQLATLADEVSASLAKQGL
NIH Chemical Genomics Center [NCGC]
Assay Provider: Jeffrey A. Kuret, Ohio State University
Tau monomers form filaments in vitro in the presence of anionic detergents or fatty acids. The dye Thioflavine S (ThS) binds to tau filaments and upon binding, increases in fluorescence several fold. Small molecules that displace ThS binding or prevent filament binding are identified by a reduction in ThS fluorescence. This assay used histidine-tagged, recombinant human tau protein containing the products of exons 2, 3, and 10 that was provided by Jeff Kuret, Ohio State University. To form filaments, 1 uM tau was incubated with 30 uM sodium octadecylsulfate (ODS) in reagent buffer (10 uM thioflavine S, 5 mM 1,4-dithioerythreitol (DTT), 100 mM sodium chloride, 10 mM HEPES pH 7.4) for 15 hrs at 37 C.
NCGC Assay Protocol Summary:
Assay Steps. Two uL/well of 2 uM tau in reagent buffer (10 uM thioflavine S, 5 mM DTT, 100 mM sodium chloride, 10 mM HEPES pH 7.4) was dispensed into solid black 1536-well plates. Twenty-three nL compound was transferred to the assay plate after which 2 uL/well of 60 uM ODS in reagent buffer was dispensed for a final assay volume of 4 uL /well. Following 15 hours of incubation at 37 C, fluorescence was detected by an Envision (Perkin Elmer) using 450/8 nm excitation and 510/23 nm emission. […]
Background: In qHTS, concentration-response curves come from the screen itself.
Regarding `CNCC[C@H](Oc1ccc(C(F)(F)F)cc1)c1ccccc1`, the Potency entry was “inactive (3×) and active: 10 µM [separate samples]”.
